Screen size: about 310,000 compounds; about 14,000 (4.5%) showed an effect of 50% or more. Effects have a minus sign here. This is one part of the list.
biological target: human ether-à-go-go-related gene (hERG) potassium channel (human, UniProt Q12809); test: primary screen, population patch clamp on CHO cells stably expressing hERG
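Note: peak tail current of the secondary pulse compared with the same well before compound.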

human ether-à-go-go-related gene (hERG) potassium channel, sequence (Q12809 whole entry, looked up): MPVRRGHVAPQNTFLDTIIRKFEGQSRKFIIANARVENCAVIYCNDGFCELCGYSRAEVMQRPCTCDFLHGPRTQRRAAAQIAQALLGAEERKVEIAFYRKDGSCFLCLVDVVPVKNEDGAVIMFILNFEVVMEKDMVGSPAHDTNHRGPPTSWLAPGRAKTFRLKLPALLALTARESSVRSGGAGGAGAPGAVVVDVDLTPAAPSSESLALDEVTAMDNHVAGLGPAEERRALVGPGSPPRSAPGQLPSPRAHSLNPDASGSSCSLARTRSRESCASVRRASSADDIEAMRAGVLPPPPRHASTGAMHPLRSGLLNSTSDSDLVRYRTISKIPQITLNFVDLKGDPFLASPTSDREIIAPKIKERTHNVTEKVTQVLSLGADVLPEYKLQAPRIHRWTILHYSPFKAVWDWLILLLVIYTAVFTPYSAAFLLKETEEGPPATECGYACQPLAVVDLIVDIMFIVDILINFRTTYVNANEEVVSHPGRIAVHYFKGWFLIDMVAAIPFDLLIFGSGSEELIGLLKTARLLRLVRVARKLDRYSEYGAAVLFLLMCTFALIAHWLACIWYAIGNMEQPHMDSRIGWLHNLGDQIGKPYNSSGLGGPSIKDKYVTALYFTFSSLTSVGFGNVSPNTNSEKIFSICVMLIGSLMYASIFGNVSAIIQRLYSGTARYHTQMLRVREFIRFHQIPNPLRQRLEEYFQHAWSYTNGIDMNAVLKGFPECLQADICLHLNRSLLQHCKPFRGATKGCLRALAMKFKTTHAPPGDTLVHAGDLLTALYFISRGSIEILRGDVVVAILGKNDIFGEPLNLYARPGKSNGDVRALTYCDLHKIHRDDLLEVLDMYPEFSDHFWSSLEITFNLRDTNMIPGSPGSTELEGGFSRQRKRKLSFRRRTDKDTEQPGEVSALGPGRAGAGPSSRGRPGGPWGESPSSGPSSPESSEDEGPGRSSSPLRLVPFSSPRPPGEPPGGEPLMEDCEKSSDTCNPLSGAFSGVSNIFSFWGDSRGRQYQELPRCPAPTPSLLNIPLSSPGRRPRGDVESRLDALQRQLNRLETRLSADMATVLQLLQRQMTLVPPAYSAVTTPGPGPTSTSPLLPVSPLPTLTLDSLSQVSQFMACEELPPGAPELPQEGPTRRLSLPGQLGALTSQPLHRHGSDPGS

Structure (SMILES)	hERG current change (%, negative = inhibition) at 10uM [%]
CCCCCCCCCCCC(=O)NC1CCS(=O)(=O)C1 (centres unmarked)	-3.37
CCC(C(=O)NCCC1=CCCCC1)n1nc(C)c2c(C)n(-c3ccccc3)nc2c1=O (centres unmarked)	-48.6
Cn1cnnc1SC(C(=O)c1ccccc1)c1ccccc1 (centres unmarked)	-1.57
CCSc1nnc(NC(=O)c2nc(-c3ccccc3)n(-c3ccccc3)n2)s1	-40
Cc1ccc(CNC(=O)CSc2ncc(C(=O)Nc3ccccc3)c(=O)n2C)cc1	-14.5
Oc1ccccc1/C=C/c1noc(-c2ccccc2O)n1	29.1
O=C(Nc1ccc(-n2nncc2-c2ccco2)cc1)c1cc2ccccc2oc1=O	9.1
O=C(C1CC(=O)N(C2CCCCCCC2)C1)N1CCC2(CC1)OCCO2 (centres unmarked)	-22.8
COc1cc(-c2c(NC(=O)c3ccco3)oc3c(C)cccc3c2=O)cc(OC)c1OC	22.6
c1ccc(-c2cc3c(-n4cccc4)ncnc3o2)cc1	0.799
CCOC(=O)N1CCN(S(=O)(=O)c2ccc(OC)c(Cl)c2)CC1	-1.37
Cc1ccc(CNc2ccc([N+](=O)[O-])cc2C(N)=O)cc1	3.67
COc1ccc(CCNC(=O)c2cc(CC(C)C)on2)cc1OC	-35.3
CN(Cc1cnc2nc(N)nc(N)c2n1)c1ccc(C(=O)N[C@@H](CCC(=O)O)C(=O)O)cc1	14.5
COc1ccc2c(c1)C(C)=CC(C)(C)N2C(=O)CSc1nnc(-c2ccc(C)cc2)o1	4.8
COc1ccccc1CCN=C(N)NS(=O)(=O)c1ccc(F)cc1	-7.93
COc1cc(-c2cn[nH]c2N)cc(OC)c1OC	7.12
Cc1ccc(-c2nc(CS(=O)CC(=O)NCCN3CCCCC3C)c(C)o2)cc1 (centres unmarked)	-9.54
COc1ccc(NS(=O)(=O)c2cccc(C(=O)N3CCC3)c2)cc1	10.5

Structure (SMILES)	hERG current change (%, negative = inhibition) at 10uM [%]
CCC1(C)Cc2c(sc(NC(=S)NC(=O)c3ccccc3)c2C#N)CO1 (centres unmarked)	18.1
CN1CCc2nc(SCc3cccc(Br)c3)c(C#N)cc2C1	-11.7
COc1ccccc1/C=C/C(=O)OCC(=O)c1c[nH]c2ccccc12	3.53
O=C(NCc1cccnc1)c1ccccc1NS(=O)(=O)c1ccc(F)cc1F	9.6
N#Cc1ccc(OCc2nnc(SCC(=O)c3ccccc3)n2-c2ccccc2)cc1	-40.8
C/C(=N\NC(=O)c1c(Br)c(C)nn1C)c1cccc(NC(=O)c2ccccc2C)c1	-4.71
S=c1[nH]nc(-c2ccco2)n1/N=C/C=C/c1ccco1	13.7
CCNS(=O)(=O)c1ccc(NC(=O)Cn2cc([N+](=O)[O-])cn2)cc1	13.1
COc1ccc(CN2C(=O)CS/C2=N/N=C/c2cccs2)cc1	14.2
COc1ccc(Br)cc1CNC(=O)C1CCCN(S(C)(=O)=O)C1 (centres unmarked)	-12.3
O=S(=O)(c1cccc(-c2cn3ccccc3n2)c1)N1CCCC1	-14.7
CN(C)C1=NC(=O)/C(=C\c2ccccc2)S1	2.8
Cc1nn(C)cc1/C=N/n1nnnc1N	-6.21
COC(=O)c1ccc(CSc2nc3ccccc3c(=O)n2C)o1	4.09
N#Cc1nc(-c2cccc3ccccc23)oc1NCCN1CCOCC1	-20.9
O=C(C[n+]1ccccc1)c1ccc(Cl)cc1.[I-]	10
O=C(N/N=C/c1ccccc1C(=O)O)c1cccc(S(=O)(=O)N2CCCCC2)c1	9.04
CC1(C)CC(NC(=O)C(c2ccccc2)c2ccccc2)CC(C)(C)N1	15.9
CCOc1ccccc1N1CN(CC)CNC1=S	6.67

Structure (SMILES)	hERG current change (%, negative = inhibition) at 10uM [%]
CC1CCN(CCCNC(=O)C2CC(=O)N(C3CCCCCC3)C2)CC1 (centres unmarked)	20.3
Cc1cc(OCc2cc(C(=O)N3CCN(CC4CC4)CC3)no2)cc(C)c1Cl	-33.3
O=C(COC(=O)CNC(=O)c1ccc(Cl)c([N+](=O)[O-])c1)NC(=O)CN1CCCC1=O	-3.03
CN(C)CCCN(C(=O)c1ccc2c(c1)CCCC2)c1nc2ccc(Cl)cc2s1.Cl	-43.8
CCC(=O)Nc1ccc(SC#N)cc1C	12.9
O=C(O)CCC(=O)Nc1sc2c(c1C(=O)Nc1cccc3ccccc13)CCCCC2	8.26
C=CCOC(=O)CCC(=O)Nc1cccc2ccccc12	-7.64
Cc1cc(=O)[nH]c(N/N=C/c2c(F)c(F)c(F)c(F)c2F)n1	-2.37
Cc1nc(C)n(CC(=O)N2CCCC(C(=O)c3cccc4ccccc34)C2)n1 (centres unmarked)	6.92
CCOc1ccc(CN(CC)C(=O)c2ccc3c(c2)[nH]c(=O)c(=O)n3CC)cc1OC	-4.7
CC(C)(O)C(=O)NNC(=S)Nc1ccc(F)c(Cl)c1	30.1
COc1ccc(-c2cn3cc(C)ccc3n2)cc1F	11.3
CSc1cccc(NC(=O)CCCOc2ccc(Cl)cc2Cl)c1	16.4
Cc1cccc(CN(CC(=O)N/N=C/c2ccco2)S(=O)(=O)c2ccc(Cl)cc2)c1	-5.48
COc1cccc(C(=O)NCC2CCCN2S(=O)(=O)c2ccccc2)c1 (centres unmarked)	2.72
O=C(C[n+]1ccn(-c2ccccc2)c1)c1ccc([N+](=O)[O-])cc1.[Br-]	-61.3
CCN(CC)S(=O)(=O)c1cccc(C(=O)OCC(=O)NC(C)c2ccccc2)c1 (centres unmarked)	-21.7
COc1cccc(S(=O)(=O)Nc2ccc(C(=O)N3CCOCC3)cc2)c1	-4.12
